The supplement of paper PMC7826260
Some of the results follow. One pool of 16,384 single-stranded DNAs met each Rep nickase domain in vitro (1 h at 37 °C, 3 µM enzyme); the outer parts of the 90-letter strands are left off. A value is the log2 ratio of uncut reads to the pool without enzyme; more negative means more cut, near 0 not cut, and no call is made. Reads are scaled to the total; uncut strands gain when others are lost, and binding without cutting may add a little.

Assays:
Experiment in all cases: uncleaved DNA left, log2 of reads against the no-enzyme library (log2 ratio); higher = less cleavage (more negative = more Rep cleavage of the k-mer); sequences stand for … in CTCGTCCG…ACCGGAGA
[1] = system: T1, Rep nickase domain of Muscovy duck circovirus
T1 sequence (Rep 1-111, printed without the tag): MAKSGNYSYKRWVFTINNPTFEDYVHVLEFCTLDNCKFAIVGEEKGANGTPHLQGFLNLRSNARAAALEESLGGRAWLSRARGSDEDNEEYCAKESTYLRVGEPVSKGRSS
Procedure: (§1)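 A pool of 90-nt single-stranded DNAs with seven random bases just before the constant AC of the nick site (name = the seven bases) was cut by 3 µM recombinant His6-SUMO-tagged Rep nickase domain (300 nM DNA, 50 mM HEPES pH 8.0, 50 mM NaCl, 1 mM MnCl2, 1 h, 37 °C, three replicates). Uncut DNA was amplified and sequenced.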

[2] = system: T2, Rep nickase domain of banana bunchy top virus
T2 sequence (Rep 1-94, printed without the tag): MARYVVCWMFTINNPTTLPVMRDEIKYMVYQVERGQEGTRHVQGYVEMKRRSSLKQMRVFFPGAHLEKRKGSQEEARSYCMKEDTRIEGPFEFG
Procedure: as §1

[3] = system: T3, Rep nickase domain of cabbage leaf curl virus
T3 sequence (Rep 1-116, printed without the tag): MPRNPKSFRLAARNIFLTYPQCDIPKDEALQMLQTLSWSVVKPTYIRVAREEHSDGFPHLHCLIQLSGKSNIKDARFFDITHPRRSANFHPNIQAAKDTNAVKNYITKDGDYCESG
Procedure: as §1

[4] = system: T4, Rep nickase domain of chickpea chlorotic dwarf virus
T4 sequence (Rep 1-124, printed without the tag): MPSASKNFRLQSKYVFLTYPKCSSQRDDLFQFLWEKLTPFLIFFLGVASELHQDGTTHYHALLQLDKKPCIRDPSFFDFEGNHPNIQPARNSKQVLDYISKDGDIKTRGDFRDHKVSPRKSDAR
Procedure: as §1

[5] = system: T5, Rep nickase domain of faba bean necrotic yellows virus
T5 sequence (Rep 1-98, printed without the tag): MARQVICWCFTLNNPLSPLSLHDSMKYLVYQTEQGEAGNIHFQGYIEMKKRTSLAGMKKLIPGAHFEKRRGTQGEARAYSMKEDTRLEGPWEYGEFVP
Procedure: as §1

[6] = system: T6, Rep nickase domain of maize striate mosaic virus
T6 sequence (Rep 1-117, printed without the tag): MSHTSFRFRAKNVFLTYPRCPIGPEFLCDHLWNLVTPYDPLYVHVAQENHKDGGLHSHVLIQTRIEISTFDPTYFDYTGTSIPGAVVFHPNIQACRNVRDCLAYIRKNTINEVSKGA
Procedure: as §1

[7] = system: T7, Rep nickase domain of porcine circovirus 2
T7 sequence (Rep 2-116, printed without the tag): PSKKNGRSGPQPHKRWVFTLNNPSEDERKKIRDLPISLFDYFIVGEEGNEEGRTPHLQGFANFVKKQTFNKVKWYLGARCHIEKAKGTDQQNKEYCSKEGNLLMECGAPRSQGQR
Procedure: as §1

[8] = system: T8, Rep nickase domain of tomato golden mosaic virus
T8 sequence (Rep 1-124, printed without the tag): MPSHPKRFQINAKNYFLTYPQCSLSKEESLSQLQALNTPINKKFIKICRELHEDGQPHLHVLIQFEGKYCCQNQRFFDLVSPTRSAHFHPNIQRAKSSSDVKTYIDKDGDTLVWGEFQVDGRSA
Procedure: as §1

[9] = system: T9, Rep nickase domain of tomato yellow leaf curl virus
T9 sequence (Rep 1-136, printed without the tag): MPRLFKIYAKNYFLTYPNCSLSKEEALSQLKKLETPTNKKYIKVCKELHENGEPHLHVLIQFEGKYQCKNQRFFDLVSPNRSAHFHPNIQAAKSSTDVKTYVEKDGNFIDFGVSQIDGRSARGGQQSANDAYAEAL
Procedure: as §1

[10] = system: T10, Rep nickase domain of wheat dwarf virus
T10 sequence (Rep 1-137, printed without the tag): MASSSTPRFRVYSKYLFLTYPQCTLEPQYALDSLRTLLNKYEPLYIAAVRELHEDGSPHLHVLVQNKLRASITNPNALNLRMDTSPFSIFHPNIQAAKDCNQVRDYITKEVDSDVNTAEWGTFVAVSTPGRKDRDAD
Procedure: as §1

Sequence | uncleaved DNA left (log2) [1] | uncleaved DNA left (log2) [2] | uncleaved DNA left (log2) [3] | uncleaved DNA left (log2) [4] | uncleaved DNA left (log2) [5] | uncleaved DNA left (log2) [6] | uncleaved DNA left (log2) [7] | uncleaved DNA left (log2) [8] | uncleaved DNA left (log2) [9] | uncleaved DNA left (log2) [10]
AGCACCA | -0.234 | -0.118 | 0.052 | 0.0147 | -0.104 | 0.763 | -0.272 | -0.0208 | -0.14 | -0.0516
AATTATC | -0.134 | -0.0984 | 0.11 | -0.219 | 0.0366 | -0.603 | -1.2 | 0.0361 | 0.0984 | 0.095
GAGAATG | 0.048 | 0.111 | 0.0451 | 0.642 | -0.0531 | 1.49 | 0.138 | 0.108 | -3.41e-05 | 0.103
ATGTGCC | -0.0776 | -0.0922 | -0.421 | -0.393 | 0.0548 | -1.05 | -0.00729 | -0.0665 | -0.0568 | -0.098
CCTCTCG | 0.159 | 0.185 | -0.691 | 0.068 | 0.0656 | -0.82 | 0.017 | 0.00534 | -0.1 | -0.0865
AAGATCG | 0.125 | 0.0619 | -0.67 | -0.433 | 0.145 | -0.833 | 0.289 | 0.00569 | 0.139 | -0.0805
ACTCTTC | 0.00809 | -0.0242 | -0.0781 | -0.372 | -0.0339 | -0.913 | 0.128 | 0.0242 | -0.0665 | -0.0762
TATGGTG | 0.052 | -0.0151 | -0.613 | -0.644 | 0.0416 | -1.13 | 0.123 | 0.043 | 0.0222 | -0.154
AGTTTGG | 0.171 | 0.113 | -0.219 | -0.203 | 0.185 | -0.933 | 0.181 | 0.0502 | 0.0518 | 0.143
TCATAGC | -0.0724 | -0.134 | -0.734 | -0.66 | -0.112 | -1.37 | -0.0396 | -0.294 | -0.0776 | -0.117
CGAAGGA | 0.0194 | 0.0113 | 0.256 | 0.806 | 0.0339 | 0.66 | 0.117 | -0.00505 | -0.0472 | 0.132
CTATTTA | -0.08 | 0.0368 | -0.235 | -1.78 | 0.0528 | -0.82 | -0.186 | 0.00185 | 0.0386 | 0.0152
GGCATCT | 0.2 | 0.168 | 0.704 | 1.3 | 0.0872 | 1.98 | 0.222 | 0.0851 | 0.216 | 0.243
CGGCTTG | -0.0613 | -0.0353 | -0.0689 | 0.518 | 0.024 | 1.4 | 0.0104 | -0.0744 | -0.0925 | -0.0233
ATCAGGT | 0.0429 | -0.0566 | 0.245 | 1.2 | 0.131 | 1.3 | 0.164 | 0.104 | -0.13 | 0.0458
AGGTCGC | 0.178 | 0.0849 | -0.187 | -0.464 | 0.167 | -0.527 | 0.0277 | -0.0204 | 0.0694 | 0.054
GTTTAGT | -0.633 | -0.0414 | 0.172 | 0.697 | 0.0754 | 1.36 | -1.04 | 0.0414 | 0.0407 | -0.049
GCCTGGT | -0.191 | -0.0492 | 0.182 | 0.518 | -0.0704 | 0.273 | -0.762 | 0.068 | 0.00324 | -0.135
ATGCTTC | 0.102 | -0.0248 | 0.00889 | -0.314 | -0.0698 | -0.898 | 0.0459 | -0.019 | -0.0966 | -0.00404
TCAAGAG | -0.0262 | 0.000129 | -0.567 | -0.576 | 0.0482 | -1.06 | 0.179 | 0.0372 | -0.0843 | -0.129
ATTGGCG | 0.0975 | -0.0469 | -0.15 | 1.3 | 0.0628 | 0.792 | 0.133 | 0.142 | 0.0541 | -0.103
AGAAAAG | 0.0458 | -0.0593 | -0.653 | -0.404 | 0.0641 | -1.1 | 0.0646 | 0.0181 | 0.0488 | -0.0055
TACTTGC | -0.143 | -0.0443 | -0.873 | -0.662 | -0.0744 | -1.21 | -0.131 | -0.285 | -0.131 | -0.257
GATTCAT | -0.373 | -0.504 | 0.386 | 0.901 | -0.0444 | 1.62 | -2.63 | -0.014 | 0.223 | 0.191
GTCGCGG | 0.043 | 0.054 | 0.341 | 0.772 | -0.154 | 1.21 | 0.036 | 0.207 | -0.0194 | 0.107
GTGCTTC | 0.000755 | 0.0178 | 0.307 | 0.854 | 0.0186 | 1.88 | 0.105 | 0.127 | 0.0541 | 0.0879
TCTGCTC | -0.0167 | -0.162 | -0.0821 | -0.655 | -0.0318 | -0.701 | -0.127 | -0.111 | -0.00204 | -0.175
ATGATCG | 0.129 | -0.1 | -0.913 | -0.258 | 0.0413 | -1.2 | 0.00871 | -0.113 | -0.101 | -0.117
GTCACAG | -0.0766 | 0.0668 | 0.247 | 0.64 | -0.077 | 1.45 | 0.172 | 0.0841 | -0.0085 | 0.0533
TGGAATC | -0.0473 | 0.0568 | 0.364 | 1.09 | -0.14 | 1.43 | 0.121 | -0.0426 | 0.0528 | 0.0191
